Reference: publication PMC11995724, “Antibiotic target discovery by integrated phenotypic and activity-based profiling of electrophilic fragments” (Cell chemical biology, 2025)
Screen size: about 3,200 compounds; about 110 (3.4%) showed an effect of 50% or more. The list shows a part of the results.

system: T1, V. cholerae SAD30; parameters: species or system S. aureus MSSA476 (TSB) or V. cholerae SAD30 (LB); 384-well bacterial growth screen at 25 uM, OD600 relative to DMSO control; conditions: relative growth, OD600, LB; 25 µM; inhibitor
T1 construct: SAD30

First: O=C(CCl)N[C@H]1CCCc2ccccc21 [6-I21, 2-chloro-N-[(1S)-1,2,3,4-tetrahydronaphthalen-1-yl]acetamide]
Second: CC(Cl)C(=O)N[C@@H]1CCc2c(C#N)cccc21 (stereo partly drawn) [6-P14, 2-chloro-N-[(1R)-4-cyano-2,3-dihydro-1H-inden-1-yl]propanamide]
The “% of control remaining” value of the first is higher: 100.711% for the first, 97.0708% for the second.

Compared with `C=CC(=O)N(Cc1ccc(F)c(C)c1)CC1(O)CCSCC1` [2-E13, N-[(4-fluoro-3-methylphenyl)methyl]-N-[(4-hydroxythian-4-yl)methyl]prop-2-enamide], `C=CC(=O)N(Cc1ccccc1)Cc1ccccc1` [1-P04, N,N-dibenzylprop-2-enamide] is higher in “% of control remaining” value: 82.4761% for the first, 99.8528% for the second.

First: COc1ccc(C(=O)CCl)cc1Cl [10-D10, 2-chloro-1-(3-chloro-4-methoxyphenyl)ethan-1-one]
Second: O=C(CCl)c1ccoc1 [10-O09, 2-chloro-1-(furan-3-yl)ethan-1-one]
The “% of control remaining” value of the first is lower: 0.9351% for the first, 123.281% for the second.

First: Cl.O=C(CCl)Nc1cccc(CN2CCSCC2)c1 [5-J14, 2-chloro-N-{3-[(thiomorpholin-4-yl)methyl]phenyl}acetamide hydrochloride]
Second: O=C(CCc1ccccc1)NC1CCN(C(=O)CCl)CC1 [5-L08, N-[1-(2-chloroacetyl)piperidin-4-yl]-3-phenylpropanamide]
The “% of control remaining” value of the first is lower: 96.3329% for the first, 100.704% for the second.

Going from `CN(CC(=O)Nc1c(Cl)cccc1Cl)C(=O)CCl` [6-M05, 2-chloro-N-{[(2,6-dichlorophenyl)carbamoyl]methyl}-N-methylacetamide] to `Cc1cccc(NC(=O)NC(=O)CCl)c1C` [4-D21, 3-(2-chloroacetyl)-1-(2,3-dimethylphenyl)urea], the “% of control remaining” value rises from 94.9474% to 104.033%.

Going from `C=CC(=O)N1CCC(C(=O)N(C)C(C)CC(N)=O)CC1` (stereo not drawn) [2-K20, 3-{N-methyl-1-[1-(prop-2-enoyl)piperidin-4-yl]formamido}butanamide] to `C=CC(=O)N1CCC(C(=O)N(C)Cc2ccon2)CC1` [2-I14, N-methyl-N-[(1,2-oxazol-3-yl)methyl]-1-(prop-2-enoyl)piperidine-4-carboxamide], the “% of control remaining” value falls from 91.8942% to 86.7992%.

Compared with `CC(C)n1ccnc1C(=O)CCl` [10-H10, 2-chloro-1-[1-(propan-2-yl)-1H-imidazol-2-yl]ethan-1-one], `CC(C)C(=O)Nc1ccc(C(=O)CCl)cc1` [10-D04, N-[4-(2-chloroacetyl)phenyl]-2-methylpropanamide] is lower in “% of control remaining” value: 100.838% for the first, 37.405% for the second.

First: C=CC(=O)NCc1ccccc1S(=O)(=O)NC(C)(C)C [1-J03, N-{[2-(tert-butylsulfamoyl)phenyl]methyl}prop-2-enamide]
Second: C=CC(=O)NC1(C(N)=O)Cc2ccccc2C1 [2-D15, 2-(prop-2-enamido)-2,3-dihydro-1H-indene-2-carboxamide]
The “% of control remaining” value of the first is higher: 97.7578% for the first, 88.8063% for the second.

First: Cc1cc(C)n(C2CN(C(=O)C(C)Cl)C2)n1 (stereo not drawn) [7-F15, 2-chloro-1-[3-(3,5-dimethyl-1H-pyrazol-1-yl)azetidin-1-yl]propan-1-one]
Second: CC(Cl)C(=O)NCCc1cn(C)nn1 (stereo not drawn) [7-A14, 2-chloro-N-[2-(1-methyl-1H-1,2,3-triazol-4-yl)ethyl]propanamide]
The “% of control remaining” value of the first is lower: 78.7709% for the first, 82.7358% for the second.

Going from `C=CC(=O)Nc1c(OC)nc(Cl)nc1OC` [1-B14, N-(2-chloro-4,6-dimethoxypyrimidin-5-yl)prop-2-enamide] to `C=CC(=O)NC1CC(C)Cc2cc(OC)ccc21` (stereo not drawn) [3-L17, N-(6-methoxy-3-methyl-1,2,3,4-tetrahydronaphthalen-1-yl)prop-2-enamide], the “% of control remaining” value rises from 48.0864% to 87.3259%.

Compared with `C=CCNC(=O)C(C#N)=Cc1ccccc1OC` [9-H05, 2-cyano-3-(2-methoxyphenyl)-N-(prop-2-en-1-yl)prop-2-enamide], `CCOc1ccccc1C=C(C#N)C(=O)Nc1ccc(Cl)cc1` [8-B09, N-(4-chlorophenyl)-2-cyano-3-(2-ethoxyphenyl)prop-2-enamide] is lower in “% of control remaining” value: 93.2019% for the first, 78.7899% for the second.

Compared with `O=C(CCl)Nc1cc(Cl)c(Cl)cc1Cl` [4-B06, 2-chloro-N-(2,4,5-trichlorophenyl)acetamide], `Cc1ccc(F)cc1NC(=O)CCl` [4-O03, 2-chloro-N-(5-fluoro-2-methylphenyl)acetamide] is lower in “% of control remaining” value: 123.183% for the first, 106.103% for the second.

First: CC(Cl)C(=O)NC(C)c1ccns1 (stereo not drawn) [6-P12, 2-chloro-N-[1-(1,2-thiazol-5-yl)ethyl]propanamide]
Second: COc1ccc(C(NC(=O)CCl)C(C)C)cc1 (stereo not drawn) [4-A13, 2-chloro-N-[1-(4-methoxyphenyl)-2-methylpropyl]acetamide]
The “% of control remaining” value of the first is lower: 99.3459% for the first, 107.656% for the second.

First: N#CC(C(=O)CCl)c1nncn1-c1ccccc1 (stereo not drawn) [10-L14, 4-chloro-3-oxo-2-(4-phenyl-4H-1,2,4-triazol-3-yl)butanenitrile]
Second: O=C(CCl)Nc1cc(-c2ccc3c(c2)CCC3)nn1-c1ccccc1 [6-J10, 2-chloro-N-[3-(2,3-dihydro-1H-inden-5-yl)-1-phenyl-1H-pyrazol-5-yl]acetamide]
The “% of control remaining” value of the first is higher: 96.1621% for the first, 89.9422% for the second.

Compared with `CN(C(=O)c1ccccc1)C1CC2CCC(C1)N2C(=O)CCl` (stereo not drawn) [5-J03, N-[8-(2-chloroacetyl)-8-azabicyclo[3.2.1]octan-3-yl]-N-methylbenzamide], `C=CC(=O)N(C)CC(=O)N1CCOC(c2ccccc2Cl)C1` (stereo not drawn) [2-J04, N-{2-[2-(2-chlorophenyl)morpholin-4-yl]-2-oxoethyl}-N-methylprop-2-enamide] is lower in “% of control remaining” value: 111.8% for the first, 90.9679% for the second.

First: Cc1ccc(N2C(=O)C=CC2=O)c([N+](=O)[O-])c1 [10-N13, 1-(4-methyl-2-nitrophenyl)-2,5-dihydro-1H-pyrrole-2,5-dione]
Second: N#CC(=Cc1ccccc1Cl)C(=O)Nc1cccc2ncccc12 [8-C15, 3-(2-chlorophenyl)-2-cyano-N-(quinolin-5-yl)prop-2-enamide]
The “% of control remaining” value of the first is lower: 27.1186% for the first, 75.9347% for the second.

First: C=CC(=O)NCC1CCN(S(=O)(=O)C(F)(F)F)CC1 [1-A03, N-[(1-trifluoromethanesulfonylpiperidin-4-yl)methyl]prop-2-enamide]
Second: C=CC(=O)NCC1(S(=O)(=O)CC)CC1 [3-O13, N-{[1-(ethanesulfonyl)cyclopropyl]methyl}prop-2-enamide]
The “% of control remaining” value of the first is lower: 100.448% for the first, 101.617% for the second.

Compared with `CC(C)NC(=O)C(C#N)=Cc1ccccc1` [8-L05, 2-cyano-3-phenyl-N-(propan-2-yl)prop-2-enamide], `CC(NC(=O)C(C#N)=Cc1ccc(C(F)(F)F)cc1)c1ccccc1` (stereo not drawn) [9-L21, 2-cyano-N-(1-phenylethyl)-3-[4-(trifluoromethyl)phenyl]prop-2-enamide] is higher in “% of control remaining” value: 76.8865% for the first, 84.3644% for the second.

Compared with `O=C(CCl)Nc1ccccc1C(=O)NCc1ccccc1` [4-C03, N-benzyl-2-(2-chloroacetamido)benzamide], `O=C(CCl)NCC(=O)N(c1ccccc1)c1ccccc1` [7-B12, 2-chloro-N-[(diphenylcarbamoyl)methyl]acetamide] is lower in “% of control remaining” value: 113.694% for the first, 83.9253% for the second.

Going from `CCN(CC(=O)NC1CCS(=O)(=O)C1)C(=O)CCl` (stereo not drawn) [4-I19, 2-chloro-N-{[(1,1-dioxo-1lambda6-thiolan-3-yl)carbamoyl]methyl}-N-ethylacetamide] to `Cc1nn(CC(F)(F)F)c(C)c1C1COCCN1C(=O)CCl` (stereo not drawn) [5-J13, 2-chloro-1-{3-[3,5-dimethyl-1-(2,2,2-trifluoroethyl)-1H-pyrazol-4-yl]morpholin-4-yl}ethan-1-one], the “% of control remaining” value falls from 104.723% to 96.3329%.

Compared with `N#CC(C(=O)Nc1ccccc1)=C1NCCCN1` [8-H10, 2-cyano-2-(1,3-diazinan-2-ylidene)-N-phenylacetamide], `C=CC(=O)N1CCC(c2nc3ccccc3o2)CC1` [1-N18, 1-[4-(1,3-benzoxazol-2-yl)piperidin-1-yl]prop-2-en-1-one] is higher in “% of control remaining” value: 69.6805% for the first, 100.098% for the second.

First: C=CC(=O)NCCC1=CCCCCC1 [1-P21, N-[2-(cyclohept-1-en-1-yl)ethyl]prop-2-enamide]
Second: C=CC(=O)Nc1sc2c(c1C(N)=O)CCCCC2 [1-F21, 2-(prop-2-enamido)-4H,5H,6H,7H,8H-cyclohepta[b]thiophene-3-carboxamide]
The “% of control remaining” value of the first is higher: 98.8042% for the first, 88.1913% for the second.

First: COc1cc(C=C(C#N)C(N)=O)cc(OC)c1OC [9-K13, 2-cyano-3-(3,4,5-trimethoxyphenyl)prop-2-enamide]
Second: C=CC(=O)Nc1cc(C(C)C)ccc1C(C)C [1-I21, N-[2,5-bis(propan-2-yl)phenyl]prop-2-enamide]
The “% of control remaining” value of the first is higher: 85.3161% for the first, 82.3617% for the second.

First: O=C(CCl)NCc1ccc(Cl)c(C(F)(F)F)c1 [7-D22, 2-chloro-N-{[4-chloro-3-(trifluoromethyl)phenyl]methyl}acetamide]
Second: Cc1c(C#N)c(NC(=O)CCl)n(Cc2ccco2)c1C [4-D09, 2-chloro-N-{3-cyano-1-[(furan-2-yl)methyl]-4,5-dimethyl-1H-pyrrol-2-yl}acetamide]
The “% of control remaining” value of the first is lower: 92.5161% for the first, 98.1669% for the second.
